In patent US20190352381A1 (Alexion, published 2019):

Target: T1, human properdin (human, UniProt P27918 28-469)
T1 sequence (looked up): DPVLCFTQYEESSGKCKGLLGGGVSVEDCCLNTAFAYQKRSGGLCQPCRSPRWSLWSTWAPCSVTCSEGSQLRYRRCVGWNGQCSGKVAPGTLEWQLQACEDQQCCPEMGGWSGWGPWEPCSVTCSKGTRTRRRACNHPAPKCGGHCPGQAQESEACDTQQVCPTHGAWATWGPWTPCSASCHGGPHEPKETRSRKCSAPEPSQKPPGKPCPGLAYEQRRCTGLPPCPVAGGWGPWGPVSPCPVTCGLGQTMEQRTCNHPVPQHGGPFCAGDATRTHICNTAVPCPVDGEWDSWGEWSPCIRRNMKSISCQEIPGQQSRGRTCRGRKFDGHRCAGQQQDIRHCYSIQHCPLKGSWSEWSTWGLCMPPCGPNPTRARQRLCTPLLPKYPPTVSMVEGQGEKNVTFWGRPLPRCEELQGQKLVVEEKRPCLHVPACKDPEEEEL
Assay: cell-based or functional assay

B1: TPP-2222 (LVP058_hG1_noC1q, VHH on human Fc without C1q binding) (Fc fusion)
chain: LEVQLVESGGGLVQAGGSLRLSCAASGRISSIIHMAWYRQAPGKQRELVAEISRVGTTVYADSVKGRFTISRDDAKNTVTLQMNSLKPEDTAVYYCNALQYEKHGGADYWGQGTQVTVSS[here human IgG1 Fc with K322A (EU numbers) without letters]
IC50 (read off the curve): ~8 nM
